Consider seven molecules from patent US20240358826A1 (ORIONIS BIOSCIENCES, published 2024).

This test has as its target T1, IL-1R (IL-1 Receptor) (UniProt P14778 18-569, limits assumed).
T1 sequence (looked up): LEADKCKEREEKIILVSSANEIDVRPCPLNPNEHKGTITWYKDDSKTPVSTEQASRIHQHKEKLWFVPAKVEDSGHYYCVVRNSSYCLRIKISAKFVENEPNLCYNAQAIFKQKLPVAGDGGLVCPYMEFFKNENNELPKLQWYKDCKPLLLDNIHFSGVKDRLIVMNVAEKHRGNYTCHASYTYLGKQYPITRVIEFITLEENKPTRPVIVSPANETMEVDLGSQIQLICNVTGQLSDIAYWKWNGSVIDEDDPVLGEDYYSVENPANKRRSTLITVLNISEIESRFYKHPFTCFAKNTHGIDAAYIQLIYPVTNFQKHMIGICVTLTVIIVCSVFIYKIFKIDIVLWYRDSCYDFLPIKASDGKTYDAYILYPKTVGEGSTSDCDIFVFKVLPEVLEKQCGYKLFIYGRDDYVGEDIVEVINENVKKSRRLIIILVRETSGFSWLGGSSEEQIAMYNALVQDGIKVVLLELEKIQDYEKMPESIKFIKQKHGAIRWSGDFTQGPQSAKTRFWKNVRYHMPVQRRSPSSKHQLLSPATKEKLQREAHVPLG
Briefly: cell-based or functional assay.

B1: CD8 VHH_5GGS_Fc_hole + Fc-knob_20GGS_IL1α delta 1-6_Q153G (Fc fusion)
chain 1: DVQLQESGGGLVQPGGSLRLSCAASGSIFSINVMGWYRQTPGKERELVAKITNFGITSYADSAQGRFTISRGNAKNTVYLQMNSLKPEDTAVYYCNLDTTGWGPPPYQYWGQGTQVTVSSGGSGGSGGSGGSGGSDKTHTCPPCPAPEAAGGPSVFLFPPKPKDTLMISRTPEVTCVVVDVSHEDPEVKFNWYVDGVEVHNAKTKPREEQYNSTYRVVSVLTVLHQDWLNGKEYKCQVSNKALPAPIEKTISKAKGQPREPQVCTLPPSRDELTKNQVSLSCAVKGFYPSDIAVEWESNGQPENNYKTTPPVLDSDGSFFLVSKLTVDKSRWQQGNVFSCSVMHEALHNHYTQKSLSLSPGK
chain 2: [letters of human IgG1 Fc with changes not shown]GGSGGSGGSGGSGGSGGSGGSGGSGGSGGSGGSGGSGGSGGSGGSGGSGGSGGSGGSGGSLSNVKYNFMRIIKYEFILNDALNQSIIRANDQYLTAAALHNLDEAVKFDMGAYKSSKDDAKITVILRISKTQLYVTAQDEDQPVLLKEMPEIPKTITGSETNLLFFWETHGTKNYFTSVAHPNLFIATKQDYWVCLAGGPPSITDFGILENQA
With B1, the “NF-KB signal, -CD8 cells, 1 ng/ml” value is 0.01 rel. to 100 ng/ml IL1α; the “NF-KB signal, -CD8 cells, 10 ng/ml” value is 0.01 rel. to 100 ng/ml IL1α; the “NF-KB signal, -CD8 cells, 100 ng/ml” value was 0.13 rel. to 100 ng/ml IL1α; the “NF-KB signal, -CD8 cells, 1000 ng/ml” value was 0.86 rel. to 100 ng/ml IL1α.

B2: CD8 VHH_5GGS_Fc_hole + Fc-knob_20GGS_IL1α delta 1-6_D65A (Fc fusion)
chain 1: DVQLQESGGGLVQPGGSLRLSCAASGSIFSINVMGWYRQTPGKERELVAKITNFGITSYADSAQGRFTISRGNAKNTVYLQMNSLKPEDTAVYYCNLDTTGWGPPPYQYWGQGTQVTVSSGGSGGSGGSGGSGGSDKTHTCPPCPAPEAAGGPSVFLFPPKPKDTLMISRTPEVTCVVVDVSHEDPEVKFNWYVDGVEVHNAKTKPREEQYNSTYRVVSVLTVLHQDWLNGKEYKCQVSNKALPAPIEKTISKAKGQPREPQVCTLPPSRDELTKNQVSLSCAVKGFYPSDIAVEWESNGQPENNYKTTPPVLDSDGSFFLVSKLTVDKSRWQQGNVFSCSVMHEALHNHYTQKSLSLSPGK
chain 2: [letters of human IgG1 Fc with changes not shown]GGSGGSGGSGGSGGSGGSGGSGGSGGSGGSGGSGGSGGSGGSGGSGGSGGSGGSGGSGGSLSNVKYNFMRIIKYEFILNDALNQSIIRANDQYLTAAALHNLDEAVKFDMGAYKSSKDAAKITVILRISKTQLYVTAQDEDQPVLLKEMPEIPKTITGSETNLLFFWETHGTKNYFTSVAHPNLFIATKQDYWVCLAGGPPSITDFQILENQA
For the molecule B2, the “NF-KB signal, -CD8 cells, 1 ng/ml” value is 0.02 rel. to 100 ng/ml IL1α; the “NF-KB signal, -CD8 cells, 10 ng/ml” value is 0.03 rel. to 100 ng/ml IL1α; the “NF-KB signal, -CD8 cells, 100 ng/ml” value was 0.25 rel. to 100 ng/ml IL1α; the “NF-KB signal, -CD8 cells, 1000 ng/ml” value was 0.83 rel. to 100 ng/ml IL1α.

B3: CD8 VHH_5GGS_Fc_hole + Fc-knob_20GGS_IL1α delta 1-6_K100A (Fc fusion)
chain 1: DVQLQESGGGLVQPGGSLRLSCAASGSIFSINVMGWYRQTPGKERELVAKITNFGITSYADSAQGRFTISRGNAKNTVYLQMNSLKPEDTAVYYCNLDTTGWGPPPYQYWGQGTQVTVSSGGSGGSGGSGGSGGSDKTHTCPPCPAPEAAGGPSVFLFPPKPKDTLMISRTPEVTCVVVDVSHEDPEVKFNWYVDGVEVHNAKTKPREEQYNSTYRVVSVLTVLHQDWLNGKEYKCQVSNKALPAPIEKTISKAKGQPREPQVCTLPPSRDELTKNQVSLSCAVKGFYPSDIAVEWESNGQPENNYKTTPPVLDSDGSFFLVSKLTVDKSRWQQGNVFSCSVMHEALHNHYTQKSLSLSPGK
chain 2: [letters of human IgG1 Fc with changes not shown]GGSGGSGGSGGSGGSGGSGGSGGSGGSGGSGGSGGSGGSGGSGGSGGSGGSGGSGGSGGSLSNVKYNFMRIIKYEFILNDALNQSIIRANDQYLTAAALHNLDEAVKFDMGAYKSSKDDAKITVILRISKTQLYVTAQDEDQPVLLKEMPEIPATITGSETNLLFFWETHGTKNYFTSVAHPNLFIATKQDYWVCLAGGPPSITDFQILENQA
For the molecule B3, the “NF-KB signal, -CD8 cells, 1 ng/ml” value is 0.02 rel. to 100 ng/ml IL1α; the “NF-KB signal, -CD8 cells, 10 ng/ml” value was 0.04 rel. to 100 ng/ml IL1α; the “NF-KB signal, -CD8 cells, 100 ng/ml” value is 0.4 rel. to 100 ng/ml IL1α.

B4: CD8 VHH_5GGS_Fc_hole + Fc-knob_20GGS_IL1α delta 1-6_C141H (Fc fusion)
chain 1: DVQLQESGGGLVQPGGSLRLSCAASGSIFSINVMGWYRQTPGKERELVAKITNFGITSYADSAQGRFTISRGNAKNTVYLQMNSLKPEDTAVYYCNLDTTGWGPPPYQYWGQGTQVTVSSGGSGGSGGSGGSGGSDKTHTCPPCPAPEAAGGPSVFLFPPKPKDTLMISRTPEVTCVVVDVSHEDPEVKFNWYVDGVEVHNAKTKPREEQYNSTYRVVSVLTVLHQDWLNGKEYKCQVSNKALPAPIEKTISKAKGQPREPQVCTLPPSRDELTKNQVSLSCAVKGFYPSDIAVEWESNGQPENNYKTTPPVLDSDGSFFLVSKLTVDKSRWQQGNVFSCSVMHEALHNHYTQKSLSLSPGK
chain 2: [letters of human IgG1 Fc with changes not shown]GGSGGSGGSGGSGGSGGSGGSGGSGGSGGSGGSGGSGGSGGSGGSGGSGGSGGSGGSGGSLSNVKYNFMRIIKYEFILNDALNQSIIRANDQYLTAAALHNLDEAVKFDMGAYKSSKDDAKITVILRISKTQLYVTAQDEDQPVLLKEMPEIPKTITGSETNLLFFWETHGTKNYFTSVAHPNLFIATKQDYWVHLAGGPPSITDFQILENQA
With B4, the “NF-KB signal, -CD8 cells, 1 ng/ml” value is 0.02 rel. to 100 ng/ml IL1α; the “NF-KB signal, -CD8 cells, 10 ng/ml” value is 0.02 rel. to 100 ng/ml IL1α; the “NF-KB signal, -CD8 cells, 100 ng/ml” value was 0.11 rel. to 100 ng/ml IL1α; the “NF-KB signal, -CD8 cells, 1000 ng/ml” value is 0.7 rel. to 100 ng/ml IL1α.

B5: CD8 VHH_5GGS_Fc_hole + Fc-knob_20GGS_IL1α delta 1-6_D64G (Fc fusion)
chain 1: DVQLQESGGGLVQPGGSLRLSCAASGSIFSINVMGWYRQTPGKERELVAKITNFGITSYADSAQGRFTISRGNAKNTVYLQMNSLKPEDTAVYYCNLDTTGWGPPPYQYWGQGTQVTVSSGGSGGSGGSGGSGGSDKTHTCPPCPAPEAAGGPSVFLFPPKPKDTLMISRTPEVTCVVVDVSHEDPEVKFNWYVDGVEVHNAKTKPREEQYNSTYRVVSVLTVLHQDWLNGKEYKCQVSNKALPAPIEKTISKAKGQPREPQVCTLPPSRDELTKNQVSLSCAVKGFYPSDIAVEWESNGQPENNYKTTPPVLDSDGSFFLVSKLTVDKSRWQQGNVFSCSVMHEALHNHYTQKSLSLSPGK
chain 2: [letters of human IgG1 Fc with changes not shown]GGSGGSGGSGGSGGSGGSGGSGGSGGSGGSGGSGGSGGSGGSGGSGGSGGSGGSGGSGGSLSNVKYNFMRIIKYEFILNDALNQSIIRANDQYLTAAALHNLDEAVKFDMGAYKSSKGDAKITVILRISKTQLYVTAQDEDQPVLLKEMPEIPKTITGSETNLLFFWETHGTKNYFTSVAHPNLFIATKQDYWVCLAGGPPSITDFQILENQA
B5: the “NF-KB signal, -CD8 cells, 1 ng/ml” value was 0.01 rel. to 100 ng/ml IL1α; the “NF-KB signal, -CD8 cells, 10 ng/ml” value was 0.02 rel. to 100 ng/ml IL1α; the “NF-KB signal, -CD8 cells, 100 ng/ml” value was 0.3 rel. to 100 ng/ml IL1α; the “NF-KB signal, -CD8 cells, 1000 ng/ml” value was 0.85 rel. to 100 ng/ml IL1α.

B6: CD8 VHH_5GGS_Fc_hole + Fc-knob_20GGS_IL1α delta 1-6_W113F (Fc fusion)
chain 1: DVQLQESGGGLVQPGGSLRLSCAASGSIFSINVMGWYRQTPGKERELVAKITNFGITSYADSAQGRFTISRGNAKNTVYLQMNSLKPEDTAVYYCNLDTTGWGPPPYQYWGQGTQVTVSSGGSGGSGGSGGSGGSDKTHTCPPCPAPEAAGGPSVFLFPPKPKDTLMISRTPEVTCVVVDVSHEDPEVKFNWYVDGVEVHNAKTKPREEQYNSTYRVVSVLTVLHQDWLNGKEYKCQVSNKALPAPIEKTISKAKGQPREPQVCTLPPSRDELTKNQVSLSCAVKGFYPSDIAVEWESNGQPENNYKTTPPVLDSDGSFFLVSKLTVDKSRWQQGNVFSCSVMHEALHNHYTQKSLSLSPGK
chain 2: [letters of human IgG1 Fc with changes not shown]GGSGGSGGSGGSGGSGGSGGSGGSGGSGGSGGSGGSGGSGGSGGSGGSGGSGGSGGSGGSLSNVKYNFMRIIKYEFILNDALNQSIIRANDQYLTAAALHNLDEAVKFDMGAYKSSKDDAKITVILRISKTQLYVTAQDEDQPVLLKEMPEIPKTITGSETNLLFFFETHGTKNYFTSVAHPNLFIATKQDYWVCLAGGPPSITDFQILENQA
Turning to B6, the “NF-KB signal, -CD8 cells, 1 ng/ml” value was 0.01 rel. to 100 ng/ml IL1α; the “NF-KB signal, -CD8 cells, 10 ng/ml” value is 0.02 rel. to 100 ng/ml IL1α; the “NF-KB signal, -CD8 cells, 100 ng/ml” value was 0.11 rel. to 100 ng/ml IL1α.

B7: CD8 VHH_5GGS_Fc_hole + Fc-knob_20GGS_IL1α delta 1-6_M15A (Fc fusion)
chain 1: DVQLQESGGGLVQPGGSLRLSCAASGSIFSINVMGWYRQTPGKERELVAKITNFGITSYADSAQGRFTISRGNAKNTVYLQMNSLKPEDTAVYYCNLDTTGWGPPPYQYWGQGTQVTVSSGGSGGSGGSGGSGGSDKTHTCPPCPAPEAAGGPSVFLFPPKPKDTLMISRTPEVTCVVVDVSHEDPEVKFNWYVDGVEVHNAKTKPREEQYNSTYRVVSVLTVLHQDWLNGKEYKCQVSNKALPAPIEKTISKAKGQPREPQVCTLPPSRDELTKNQVSLSCAVKGFYPSDIAVEWESNGQPENNYKTTPPVLDSDGSFFLVSKLTVDKSRWQQGNVFSCSVMHEALHNHYTQKSLSLSPGK
chain 2: [letters of human IgG1 Fc with changes not shown]GGSGGSGGSGGSGGSGGSGGSGGSGGSGGSGGSGGSGGSGGSGGSGGSGGSGGSGGSGGSLSNVKYNFARIIKYEFILNDALNQSIIRANDQYLTAAALHNLDEAVKFDMGAYKSSKDDAKITVILRISKTQLYVTAQDEDQPVLLKEMPEIPKTITGSETNLLFFWETHGTKNYFTSVAHPNLFIATKQDYWVCLAGGPPSITDFQILENQA
Turning to B7, the “NF-KB signal, -CD8 cells, 1 ng/ml” value was 0.01 rel. to 100 ng/ml IL1α; the “NF-KB signal, -CD8 cells, 10 ng/ml” value was 0.02 rel. to 100 ng/ml IL1α; the “NF-KB signal, -CD8 cells, 100 ng/ml” value is 0.08 rel. to 100 ng/ml IL1α; the “NF-KB signal, -CD8 cells, 1000 ng/ml” value was 0.6 rel. to 100 ng/ml IL1α.
